# Assay results from ChEMBL document CHEMBL1201862, “PubChem BioAssay data set” (2004).
# Test system: NCI-H322M
# Test: DTP human tumour cell line panel, 48 h
row,Structure (SMILES),GI50
1,Cn1cnc([N+](=O)[O-])c1Sc1nc(N)nc2c1ncn2[C@H]1C[C@H](O)[C@@H](CO)O1,inactive: 14.5 µM
2,O=C(CCc1ccc(O)c(O)c1)NCCc1ccc(O)c(O)c1,inactive: > 100 µM
3,O=C(/C=C/c1cccc(Oc2ccccc2)c1)NCc1ccc(C(=O)NCc2ccccc2)cc1,inactive: > 100 µM
4,Cc1nc2ccccc2c(=O)n1/N=C(\N=N\c1cc(Cl)ccc1Cl)c1ccccc1,inactive: 65 µM
5,NC(Cc1ccccc1)c1nccs1 (stereo not given),inactive: > 100 µM
6,Cc1nc(Nc2ccc(Cl)cc2)sc1C(=O)Nc1cccc2c(=O)[nH][nH]c(=O)c12,inactive: > 100 µM
7,CN(c1ccccc1)S(=O)(=O)c1ccccc1[N+](=O)[O-],inactive: > 100 µM
8,COc1cc(-c2coc3c(OC)c(OC4OC(CO)C(O)C(O)C4O)c(OC)cc3c2=O)cc(OC)c1C (stereo not given),inactive: 11.7 µM
9,O=C1CCCC2C(O)CCC[C@H]12 (stereo not given in full),inactive: > 100 µM
10,CCCCCCCCCCCCCCCCCCOCC(COCCOCC[N+]1(CCCCCC(=O)[O-])CCCC1)Oc1ncccn1 (stereo not given),inactive: 2.62 µM
11,O=[N+]([O-])c1ccc(/C=N/C2CCCCC2)cc1,inactive: > 100 µM
12,CN(C)Cc1cc(/N=N/c2ccccc2Cl)ccc1O,inactive: 45.4 µM
13,Cc1ccc(C[N+](C)(C)N)cc1C,inactive: > 10 µM
14,CSc1ccc(OCC2OC2O)cc1 (stereo not given),inactive: > 100 µM
15,Cn1c(-c2cccs2)cc(-c2ccsc2)c1-c1cccs1,inactive: 87.7 µM
16,S=C1NCCN1C(=S)NC1CCCCC1,inactive: 67.1 µM
17,COC(=O)C[C@H](COCc1ccccc1)NC(=O)C[C@H](COCc1ccccc1)NC(=O)OC(C)(C)C,inactive: 25.5 µM
18,O=C(NCc1ccc(Cl)cc1)c1cc2sccc2nc1C(F)(F)F,inactive: 30.6 µM
19,Cc1[nH]c(=O)nc(N/N=C/c2ccc(Cl)cc2)c1C(=O)Nc1ccc(Cl)cc1,inactive: 42.7 µM
20,O=C(Nc1ccc(Cl)cc1)c1cc(S(=O)(=O)Nc2n[nH]c(Nc3ccc4ccccc4c3)n2)c(SSc2cc(Cl)c(C(=O)Nc3ccc(Cl)cc3)cc2S(=O)(=O)Nc2n[nH]c(Nc3ccc4ccccc4c3)n2)cc1Cl,inactive: 27.2 µM
21,CC(=O)OC1C(Oc2c(C)cc3c(c2O)[C@@H](C)CC[C@@H]3[C@@H](C)CCC=C(C)C)OCC(O)C1O (stereo not given in full),inactive: 18.3 µM
22,CCCCCC/C=C\CCCCCCCCCc1cccc(OC)c1O,inactive: > 100 µM

row,Structure (SMILES),GI50
1,CC(=O)c1cc(CC2Cc3cc4c(cc3C2=O)CCC4)cc2c1CCC2 (stereo not given),inactive: > 100 µM
2,CCOC(=O)C(CCCNC(=O)OC(C)(C)C)N(Cc1ccc(OC)cc1OC)C(=O)CC(=O)CP(=O)(OCC)OCC (stereo not given),inactive: > 100 µM
3,O=C1N2Cc3c4ccc5c3CN3C(=O)N6Cc7c(ccc(c7CN1C6(c1ccccc1)C23c1ccccc1)OCCOCCOc1cc(Br)c(Br)cc1OCCOCCO4)OCCOCCOc1cc(Br)c(Br)cc1OCCOCCO5 (stereo not given),inactive: > 100 µM
4,COc1ccc(OC(=O)CC2Cc3cc(OC)c(OC)c(OC)c3-c3ccc(SC)c(=O)cc32)cc1 (stereo not given),active: 0.65 µM
5,Cc1ccccc1NC(=O)Cc1csc(N/N=C2\C(=O)Nc3ccccc32)n1,inactive: 29.2 µM
6,C[N+]1(C)CC=C(N2CCOCC2)CC1,inactive: > 10 µM
7,COc1ccc2cc1Oc1ccc(cc1)C(Sc1ccccc1)CCOC(=O)CC2 (stereo not given),inactive: > 100 µM
8,Cc1c(CC/C(=N\Nc2ccc([N+](=O)[O-])cc2[N+](=O)[O-])c2ccccc2)c2ccccc2n1C,inactive: > 100 µM
9,CCc1ccccc1NC(=O)C1=C(C)NC(C)=C(C(=O)Nc2ccccc2CC)C1c1ccccc1Cl,inactive: > 100 µM
10,N#CC1(C#N)NC(c2ccccc2)C(C#N)(C#N)NC1c1ccccc1 (stereo not given),inactive: > 100 µM
11,COC(=O)c1ccc([N+](=O)[O-])c(O)c1,inactive: > 100 µM
12,Cc1ccc2nc(Cl)c(/C=N/N3C(=O)/C(=C/Cc4ccco4)N=C3c3ccccc3)cc2c1,inactive: > 71.9 µM
13,COC(=O)c1ccccc1NC(=O)C(=O)CC(=O)c1ccccc1NC1=CC(=O)C(=O)c2ccccc21,inactive: 15 µM
14,C/C=C1/CN2CCc3c([nH]c4ccccc34)[C@@H]2C[C@@H]1Cc1nccc2c1[nH]c1cc(O)ccc12,inactive: 1.87 µM
15,CCOC(=O)C1=C(Nc2ccc(Cl)cc2Cl)OCC1=O,inactive: > 100 µM
16,Cc1ccc(S(=O)(=O)N/N=C2\C=C[C@]3(CC2)C(=O)N(C)c2ccccc23)cc1,inactive: 48.3 µM
17,O=C(Nc1ccccc1-c1nn(CN2CCNCC2)c(=S)n(CN2CCNCC2)c1=O)C(F)(F)F,inactive: 22.1 µM
18,N#Cc1c2c(c(N)oc1=O)C(c1ccccc1)CC(=O)N2 (stereo not given),inactive: > 100 µM
19,C/C(=N\NC(=O)CC(=O)N(C(=O)c1ccc(Cl)cc1)c1ccc(C)cc1)c1ccccc1O,inactive: 4.32 µM
20,COC1OC(Cn2c(C)nc(Br)c2Br)C(O)C(O)C1O (stereo not given),inactive: > 100 µM
21,O=C(CSc1nc(-c2ccccc2)c(-c2ccccc2)[nH]1)N/N=C/c1ccc([N+](=O)[O-])cc1,inactive: 20.6 µM
22,COc1ccc(C(=O)O/N=C2/CCCCC2CN(C)C)cc1 (stereo not given),inactive: > 100 µM

row,Structure (SMILES),GI50
1,N/C(=N\O)N/N=C/c1ccc(O)c(O)c1,inactive: > 100 µM
2,O=C(Nc1c(Cl)cc([N+](=O)[O-])cc1Cl)C(=O)C1C(=O)NC(=S)NC1=O,inactive: > 100 µM
3,COc1ccc(-c2cc(-c3ccc(Nc4ccnc5cc(Cl)ccc45)cc3)[nH]c(=O)c2C#N)cc1,inactive: > 100 µM
4,CC1=NN=C(N)N/C1=C\C(Sc1ccc(Cl)cc1)c1ccc(Cl)cc1Cl (stereo not given),inactive: 16.9 µM
5,CCn1c(-c2ccc(C)cc2)cs/c1=N\C(P(=O)(O)O)P(=O)(O)O,inactive: > 100 µM
6,N#Cc1c(N)c2c(c(-c3ccccc3)c1-c1ccccc1)C(=O)N(N)C2=O,inactive: > 100 µM
7,O=C1NC(=S)NC(=O)C1=CC1CC1,inactive: > 100 µM
8,O=CC1CCC=CC1NC(=O)OCc1ccccc1 (stereo not given),inactive: > 100 µM
9,CC(=O)OCC1OC(Oc2cc(C)c(O)cc2C/C=C(\C)CC/C=C(\C)CC(=O)CC(C)C)C(O)C(OC(C)=O)C1OC(C)=O (stereo not given),inactive: 6.47 µM
10,Br[Se]c1ccccn1,inactive: 16 µM
11,COc1cc(COC(=O)N2CCCCC2C(=O)O)c([N+](=O)[O-])cc1OC (stereo not given),inactive: > 100 µM
12,CN(C)CCCNC(=O)c1c(O)c2ccccc2n(C)c1=O,inactive: 53 µM
13,COc1ccc(/C=N/Nc2nc(=S)[nH]c3[nH]ncc23)cc1,inactive: 36.6 µM
14,CC1=CC(=O)/C(=C/NC(=S)NCc2ccccc2)C(=O)O1,inactive: > 100 µM
15,C[Si](C)(c1ccccc1)[C@H]1CCCC=C1CCNC1c2ccccc2CCc2ccccc21,inactive: > 100 µM
16,CCOC(=O)C(NC(=O)OCc1ccccc1)C(=O)O (stereo not given),inactive: > 100 µM
17,CCCCCCCCCCCCCCCC/C(C(=O)OC)=C(/O)C(=O)OCC,inactive: > 100 µM
18,[O-][S+](c1ccccc1)c1ccc(/N=N/O)nc1 (stereo not given),inactive: > 100 µM
19,CC1CC(=O)C(CC(=O)O)[C@H]1C(C(=O)C(=O)Nc1cc(Cl)ccc1Cl)[N+](=O)[O-] (stereo not given in full),inactive: > 100 µM
20,N/C(=N/O)c1cn(C2OC(CO)C(O)C2O)c2ncnc(NO)c12 (stereo not given),active: 0.303 µM
21,COc1cc(/C=C\c2ccc(Br)cc2)cc(OC)c1OC,active: 0.00381 µM

#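 96-well plates; 48 h exposure; 5 concentrations. Endpoints by linear interpolation between flanking doses. Not reached: highest tested concentration assigned. At the GI50, growth is halved.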 Activity calls are given as the source filed them. Rule as the data show it: active = GI50 up to about 1.1 µM and inactive = higher.
